Results as given in PMC7819943, “Rice protein-binding microarrays: a tool to detect cis-acting elements near promoter regions in rice”.
The other results are listed elsewhere or left out.

These sequences were tested against T1, OsWOX13 (Oryza sativa, UniProt Q5QMM3 1-267) (assay: protein-binding microarray (RPBM); PBS, 2% BSA, 51.3 ng/ul salmon testes DNA, 50 uM zinc acetate, 200 nM TF, 25 C, 1 h; high values mean tight binding). Details: protein: recombinant; tags: N-terminal polyhistidine and DsRed monomer fusion (pET32a); label: CyDye5-dUTP incorporated in the synthesized complementary strand; 3' TTTTT single-stranded linker to array surface; dsDNA, one strand shown.
T1 sequence: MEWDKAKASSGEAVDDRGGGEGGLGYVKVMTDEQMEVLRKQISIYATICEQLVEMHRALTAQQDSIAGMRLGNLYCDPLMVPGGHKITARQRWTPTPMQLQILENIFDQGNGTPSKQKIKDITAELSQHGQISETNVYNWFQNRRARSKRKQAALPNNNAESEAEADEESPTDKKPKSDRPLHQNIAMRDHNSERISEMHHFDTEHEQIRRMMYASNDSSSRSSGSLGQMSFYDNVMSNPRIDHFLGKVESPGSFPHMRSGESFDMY
Method in brief: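 The binding signal is fluorescence intensity per feature, in arbitrary units, read on an Axon 4000B scanner. Polyhistidine- and DsRed-tagged transcription factors (N-terminal fusions) from E. coli BL21-CodonPlus were purified on Ni–NTA and applied at 200 nM for 1 h at 25 °C to a double-stranded, BSA-blocked custom Agilent array in buffer with 50 µM zinc acetate.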

| Sequence | binding signal |
| --- | --- |
| GCCGACAAATCACGCCATAGACCAACCCAACCCGTGCCGCCGGAGTCACCTAGTGCAG | 4930 fluorescence intensity (a.u.) |
| TAAAGGTTATATTGATGATTGAACGCAACATATTGAGGAACGGAGTCACCTAGTGCAG | 8790 fluorescence intensity (a.u.) |
| TTAACTGAATTATATGACTCCATATGCAGCAAGTAGTGCACGGAGTCACCTAGTGCAG | 9570 fluorescence intensity (a.u.) |
| CTGCTAAATTGCAACCAATAGGCCGTATACGTGCCTCGGCCGGAGTCACCTAGTGCAG | 9600 fluorescence intensity (a.u.) |
| ATAATTTACATTGTGAAACGGAGGAAGTAAATTACATCCTCGGAGTCACCTAGTGCAG | 7640 fluorescence intensity (a.u.) |
| TGTGCCCGAGTAATTAATTAATAACCTACTCTCTCCGGTTCGGAGTCACCTAGTGCAG | 12000 fluorescence intensity (a.u.) |
| ATTGGCTATTAGATTGGCTATAGATGAATTAGAGTTAGTACGGAGTCACCTAGTGCAG | 15400 fluorescence intensity (a.u.) |
| AACAAATTTAGAAGTTGATGGCCACGGACAAATCGAGAGACGGAGTCACCTAGTGCAG | 5040 fluorescence intensity (a.u.) |
| ATGGCTAATCATAGACTAATTAGGCTCAAAAGTTTCGTCTCGGAGTCACCTAGTGCAG | 29000 fluorescence intensity (a.u.) |
| ATGATTTGCTTCAGTGATGCTATATTAATCAGCCGCTAATCGGAGTCACCTAGTGCAG | 22800 fluorescence intensity (a.u.) |
| CTTAGATTAGACTTTTGCACAATGTAAATTACAAAACTTCCGGAGTCACCTAGTGCAG | 15000 fluorescence intensity (a.u.) |
| TTCATCTGACATGATTGCCTCTTGTCTTCATCCCTCCCAACGGAGTCACCTAGTGCAG | 23600 fluorescence intensity (a.u.) |
| ATTTAATTTAGAATGTGTGACAGTGTTTTCAACATGTAGACGGAGTCACCTAGTGCAG | 26000 fluorescence intensity (a.u.) |
| TAAGTATCCTTGATTGATTGCCTGATCGATCAGCTGCTAGCGGAGTCACCTAGTGCAG | 55000 fluorescence intensity (a.u.) |
| TGAAGATTGATGAGATGGACGGTACCATTGCCGATGCTGTCGGAGTCACCTAGTGCAG | 56700 fluorescence intensity (a.u.) |
| CTTGACTGGCTTCGTTAATGGACTCGCCACCTCACCTACTCGGAGTCACCTAGTGCAG | 45000 fluorescence intensity (a.u.) |
| TGGAGTGATTTATCATATATTAATTTATTTTATTCATGTTCGGAGTCACCTAGTGCAG | 18100 fluorescence intensity (a.u.) |
| TTCTAAATTAATATATTTCATAATCATGGTTCTTTTAGCACGGAGTCACCTAGTGCAG | 24800 fluorescence intensity (a.u.) |
| CCTAATTGCACCATGATTTGATAATGTTGTGCTACAGTAACGGAGTCACCTAGTGCAG | 42600 fluorescence intensity (a.u.) |
| ATCAATCTAATCATGACTTTGAGTCATTTCCGATCTAACTCGGAGTCACCTAGTGCAG | 11800 fluorescence intensity (a.u.) |
| ACATAGACTGGGAGATGAATACACTACGGTGCCCTCTCATCGGAGTCACCTAGTGCAG | 6990 fluorescence intensity (a.u.) |

| Sequence | binding signal |
| --- | --- |
| TAATCAATTATCACATGCTGAGATTTCGCAAATCACGCTTCGGAGTCACCTAGTGCAG | 18700 fluorescence intensity (a.u.) |
| CCTTGGATCGGCTGATTGGCCGATCGAACTAGAGAGAGATCGGAGTCACCTAGTGCAG | 12100 fluorescence intensity (a.u.) |
| AGTAGTTAATTGGATTGGGCCGGGCCCACCGGCCCACGGCCGGAGTCACCTAGTGCAG | 30300 fluorescence intensity (a.u.) |
| GCCCATATTGATGTATTCATTACCAGAAACTGTGTATCGGCGGAGTCACCTAGTGCAG | 3360 fluorescence intensity (a.u.) |
| ACCTCCTGACTCTTGCCAATCATCTTATAGCTGTTTAGATCGGAGTCACCTAGTGCAG | 11100 fluorescence intensity (a.u.) |
| ATTTTAATTTGTGGGCAGAAATAAACTATATAAGTACATACGGAGTCACCTAGTGCAG | 18000 fluorescence intensity (a.u.) |
| TATGAGTGATAAATAATTAATTACCACGTCTTAAAAGTGGCGGAGTCACCTAGTGCAG | 28600 fluorescence intensity (a.u.) |
| TGATTAATTGAGAAGAGAAAGTTAATAAAGAATTTAAATGCGGAGTCACCTAGTGCAG | 32700 fluorescence intensity (a.u.) |
| GCACGGATTTGATTTGATGATGTTCATGCTTAGAAGATGGCGGAGTCACCTAGTGCAG | 20500 fluorescence intensity (a.u.) |
| CTCATAACATAAATAACATGTTATGAAACTTTGATCAAGTCGGAGTCACCTAGTGCAG | 4160 fluorescence intensity (a.u.) |
| GATGATTGAATTCACCAATGTCTCGCTCAACGTGTTACGTCGGAGTCACCTAGTGCAG | 40500 fluorescence intensity (a.u.) |
| TATTAATTAATTACTAAATCAATGCATTTAGGGACTTCTTCGGAGTCACCTAGTGCAG | 25500 fluorescence intensity (a.u.) |
| ATTAATTTCTGATCCCACCTGTCATACACATATTGTTTCTCGGAGTCACCTAGTGCAG | 10800 fluorescence intensity (a.u.) |
| GTATGACAGGTAGGACTAGATATTAATAGTGTAATAAGTACGGAGTCACCTAGTGCAG | 4520 fluorescence intensity (a.u.) |
| TAGTTTGATAATTGACTTTACAAACAGATCAATTGTCTGTCGGAGTCACCTAGTGCAG | 26100 fluorescence intensity (a.u.) |
| ATACTAATTACTTAATTAGTGACCAGTGATCACTTGTGTGCGGAGTCACCTAGTGCAG | 45800 fluorescence intensity (a.u.) |
| TTGAATTTGATTGTGTGCACATCTAGCTAATGGCAAACAACGGAGTCACCTAGTGCAG | 16600 fluorescence intensity (a.u.) |
| GTAATTGGGAGGGAATTTCTCCTTTACTTCGCCTAAACAACGGAGTCACCTAGTGCAG | 14100 fluorescence intensity (a.u.) |
| ATTTCAGAATTTACATTGATTTTGTTTGAAGAGTGCAATTCGGAGTCACCTAGTGCAG | 4920 fluorescence intensity (a.u.) |
| TGAGGTGCAATCATTCGAACAATCAAACATGAAGGCTCTACGGAGTCACCTAGTGCAG | 4530 fluorescence intensity (a.u.) |
| CCCGACGTGAATATGTGATTATCATATGTGCGATGTACACCGGAGTCACCTAGTGCAG | 3430 fluorescence intensity (a.u.) |
